Consider 32 sequences from publication PMC12820563, “FoxP3 forms a head-to-head dimer in vivo and stabilizes its multimerization on adjacent microsatellites”.

The other results are listed elsewhere or left out.

The target in the experiment is T1, MBP-FoxP1dN (Mus musculus, UniProt P58462 326-579).
T1 sequence: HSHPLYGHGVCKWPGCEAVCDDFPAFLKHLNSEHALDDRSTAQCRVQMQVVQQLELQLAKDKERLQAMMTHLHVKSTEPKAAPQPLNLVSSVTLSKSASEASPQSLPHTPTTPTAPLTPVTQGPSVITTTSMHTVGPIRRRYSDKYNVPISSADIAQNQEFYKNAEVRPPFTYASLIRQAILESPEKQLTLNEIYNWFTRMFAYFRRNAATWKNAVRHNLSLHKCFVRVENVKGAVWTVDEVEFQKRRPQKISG
Kind of experiment: PD-seq (MBP pull-down with sequencing); 20 mM Tris-HCl pH 7.5, 100 mM NaCl, 1.5 mM MgCl2, 0.4 uM protein, 0.1 uM dsDNA library, 30 min, room temperature, amylose pull-down; high values mean tight binding. As to conditions: protein: recombinant; tags: His6-MBP; chain copies: 2; dsDNA, one strand shown. An outline of the steps: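 A degenerate double-stranded DNA library, filled in with Klenow, was added at 0.1 µM to 0.4 µM His6-MBP-tagged mouse FoxP3 or FoxP1 fragment lacking the N-terminus, expressed in E. coli. Incubation lasted 30 min at room temperature in Tris pH 7.5 buffer with NaCl and MgCl2, after which complexes were collected on amylose resin, washed three times, digested with proteinase K to free the DNA, barcoded by PCR and sequenced by Illumina. Binding is the pooled-replicate reads-per-million enrichment of pull-down over input.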
“GATGATTGTTCTCCCAGCTGATGAATTGTTTTGTTCGAGTAAACAAATTTTCCTAATCTTTCTGTTCAAGCGCCATCTAC”: the binding signal was 1.97 RPM ratio (pull-down/input).
For the sequence “GATGATTGTTCTCCCAGCTGATGAATTATTGTTCTCGAGTAAACAAATTTTCCTAATCTTTCTGTTCAAGCGCCATCTAC”, the binding signal is 1.71 RPM ratio (pull-down/input).
Consider “GATGATTGTTCTCCCAGCTGATGAATTTCCGTGATCGAGTAAACAAATTTTCCTAATCTTTCTGTTCAAGCGCCATCTAC”, for which the binding signal was 0.841 RPM ratio (pull-down/input).
Regarding “GATGATTGTTCTCCCAGCTGATGAATTGGTGAAGTCGAGTAAACAAATTTTCCTAATCTTTCTGTTCAAGCGCCATCTAC”, the binding signal was 0.924 RPM ratio (pull-down/input).
In the case of “GATGATTGTTCTCCCAGCTGATGAATTCCTGCAGTCGAGTAAACAAATTTTCCTAATCTTTCTGTTCAAGCGCCATCTAC”, the binding signal was 0.788 RPM ratio (pull-down/input).
With “GATGATTGTTCTCCCAGCTGATGAATTGGTAACGTCGAGTAAACAAATTTTCCTAATCTTTCTGTTCAAGCGCCATCTAC”, the binding signal was 0.964 RPM ratio (pull-down/input).
As for “GATGATTGTTCTCCCAGCTGATGAATTCCACTCTTCGAGTAAACAAATTTTCCTAATCTTTCTGTTCAAGCGCCATCTAC”, the figure is 0.826 RPM ratio (pull-down/input).
As for “GATGATTGTTCTCCCAGCTGATGAATTATATAGTTCGAGTAAACAAATTTTCCTAATCTTTCTGTTCAAGCGCCATCTAC”, the figure is 1.04 RPM ratio (pull-down/input); as for “GATGATTGTTCTCCCAGCTGATGAATTGGGTTCCTCGAGTAAACAAATTTTCCTAATCTTTCTGTTCAAGCGCCATCTAC”, 0.828 RPM ratio (pull-down/input).
As for “GATGATTGTTCTCCCAGCTGATGAATTACTACAATCGAGTAAACAAATTTTCCTAATCTTTCTGTTCAAGCGCCATCTAC”, the figure is 1.55 RPM ratio (pull-down/input); as for “GATGATTGTTCTCCCAGCTGATGAATTCCAAGTATCGAGTAAACAAATTTTCCTAATCTTTCTGTTCAAGCGCCATCTAC”, 0.949 RPM ratio (pull-down/input); as for “GATGATTGTTCTCCCAGCTGATGAATTATACAAATCGAGTAAACAAATTTTCCTAATCTTTCTGTTCAAGCGCCATCTAC”, 1.55 RPM ratio (pull-down/input).
As for “GATGATTGTTCTCCCAGCTGATGAATTGGGCTCGTCGAGTAAACAAATTTTCCTAATCTTTCTGTTCAAGCGCCATCTAC”, the binding signal is 0.852 RPM ratio (pull-down/input).
Consider “GATGATTGTTCTCCCAGCTGATGAATTTTTTCCGTCGAGTAAACAAATTTTCCTAATCTTTCTGTTCAAGCGCCATCTAC”, for which the binding signal was 0.946 RPM ratio (pull-down/input).
As for “GATGATTGTTCTCCCAGCTGATGAATTCCAACATTCGAGTAAACAAATTTTCCTAATCTTTCTGTTCAAGCGCCATCTAC”, the binding signal was 0.961 RPM ratio (pull-down/input).
As for “GATGATTGTTCTCCCAGCTGATGAATTTGAGGTGTCGAGTAAACAAATTTTCCTAATCTTTCTGTTCAAGCGCCATCTAC”, the binding signal was 0.817 RPM ratio (pull-down/input).
As for “GATGATTGTTCTCCCAGCTGATGAATTAATCTGGTCGAGTAAACAAATTTTCCTAATCTTTCTGTTCAAGCGCCATCTAC”, the binding signal is 0.789 RPM ratio (pull-down/input).
As for “GATGATTGTTCTCCCAGCTGATGAATTGTGTCTCTCGAGTAAACAAATTTTCCTAATCTTTCTGTTCAAGCGCCATCTAC”, the figure is 1.1 RPM ratio (pull-down/input).
On to “GATGATTGTTCTCCCAGCTGATGAATTCGATAGTTCGAGTAAACAAATTTTCCTAATCTTTCTGTTCAAGCGCCATCTAC”, for which the binding signal is 0.89 RPM ratio (pull-down/input).
As for “GATGATTGTTCTCCCAGCTGATGAATTCTAGCGCTCGAGTAAACAAATTTTCCTAATCTTTCTGTTCAAGCGCCATCTAC”, the figure is 0.816 RPM ratio (pull-down/input); as for “GATGATTGTTCTCCCAGCTGATGAATTCGTGGTGTCGAGTAAACAAATTTTCCTAATCTTTCTGTTCAAGCGCCATCTAC”, 0.882 RPM ratio (pull-down/input); as for “GATGATTGTTCTCCCAGCTGATGAATTGAAACAGTCGAGTAAACAAATTTTCCTAATCTTTCTGTTCAAGCGCCATCTAC”, 0.971 RPM ratio (pull-down/input).
For “GATGATTGTTCTCCCAGCTGATGAATTGCGTAGGTCGAGTAAACAAATTTTCCTAATCTTTCTGTTCAAGCGCCATCTAC”, the binding signal was 0.97 RPM ratio (pull-down/input).
As for “GATGATTGTTCTCCCAGCTGATGAATTTTCAATTTCGAGTAAACAAATTTTCCTAATCTTTCTGTTCAAGCGCCATCTAC”, the figure is 0.889 RPM ratio (pull-down/input); as for “GATGATTGTTCTCCCAGCTGATGAATTTAAGGGATCGAGTAAACAAATTTTCCTAATCTTTCTGTTCAAGCGCCATCTAC”, 0.794 RPM ratio (pull-down/input); as for “GATGATTGTTCTCCCAGCTGATGAATTCGGGGTATCGAGTAAACAAATTTTCCTAATCTTTCTGTTCAAGCGCCATCTAC”, 0.904 RPM ratio (pull-down/input).
As for “GATGATTGTTCTCCCAGCTGATGAATTATGTTGTTCGAGTAAACAAATTTTCCTAATCTTTCTGTTCAAGCGCCATCTAC”, the figure is 2.67 RPM ratio (pull-down/input); as for “GATGATTGTTCTCCCAGCTGATGAATTGATTCAGTCGAGTAAACAAATTTTCCTAATCTTTCTGTTCAAGCGCCATCTAC”, 0.922 RPM ratio (pull-down/input); as for “GATGATTGTTCTCCCAGCTGATGAATTAACCCCCTCGAGTAAACAAATTTTCCTAATCTTTCTGTTCAAGCGCCATCTAC”, 0.867 RPM ratio (pull-down/input).
As to “GATGATTGTTCTCCCAGCTGATGAATTCCTTGCATCGAGTAAACAAATTTTCCTAATCTTTCTGTTCAAGCGCCATCTAC”, the binding signal was 1.12 RPM ratio (pull-down/input).
As to “GATGATTGTTCTCCCAGCTGATGAATTTAGAATATCGAGTAAACAAATTTTCCTAATCTTTCTGTTCAAGCGCCATCTAC”, the binding signal was 1.08 RPM ratio (pull-down/input).
As for “GATGATTGTTCTCCCAGCTGATGAATTGGCCGACTCGAGTAAACAAATTTTCCTAATCTTTCTGTTCAAGCGCCATCTAC”, the figure is 0.77 RPM ratio (pull-down/input).
